{"source": "PubChem BioAssay AID485294", "about": "(National Center for Advancing Translational Sciences (NCATS), 2010)", "note": "The campaign covered roughly 370,000 compounds. About 150 (0.041%) were called active. The inconclusive results got no clear call from the source; some entries with a clear call stand among them for comparison. The call rests on the fitted dose curve; in most records, active means well fitted inhibition curve with a large enough effect; inconclusive means small, poorly fitted or top-dose-only effect; inactive means flat fitted curve, though single readings scatter. Potencies of inconclusive entries are left out as doubtful fits. Potency means the concentration at half of the fitted maximal effect; tags describe the fitted curve by direction and shape.", "data": [{"molecular_target": "Beta-lactamase (Escherichia coli (strain K12)) (UniProt P00811)", "sequence (P00811 whole entry, looked up)": "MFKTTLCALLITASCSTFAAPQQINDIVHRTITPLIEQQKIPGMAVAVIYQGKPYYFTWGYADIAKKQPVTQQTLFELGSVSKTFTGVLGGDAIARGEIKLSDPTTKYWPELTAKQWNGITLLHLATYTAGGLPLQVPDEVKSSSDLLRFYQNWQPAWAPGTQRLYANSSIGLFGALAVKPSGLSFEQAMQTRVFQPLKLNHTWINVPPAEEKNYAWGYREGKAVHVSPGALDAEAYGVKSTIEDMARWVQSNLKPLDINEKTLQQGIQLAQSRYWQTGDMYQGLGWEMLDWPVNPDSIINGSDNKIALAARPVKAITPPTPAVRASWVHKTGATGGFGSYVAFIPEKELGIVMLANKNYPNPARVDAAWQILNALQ", "assay": "qHTS Inhibitors of AmpC Beta-Lactamase (assay with detergent); further: nearly all actives have a fitted effect of over 25% in size;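 on activity change, negative = inhibition: 0% = no-compound wells and -100% = no-enzyme wells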", "conditions": "AmpC hydrolysis of nitrocefin, absorbance 480 nm, 0.01% Triton; activity change, negative = inhibition: at 114 µM (top of the series)", "procedure,_shortened": "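20 mM phosphate pH 7.0 + 0.01% (detergent screen) or 0.0001% Triton X-100; 5.3 nM AmpC reagent; cpd preinc 15 min RT; nitrocefin (800 uM stock) to start; A480 q20 s × 4 min; Activity was normalised to no-enzyme and no-compound control wells.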", "values": [{"compound": "Fc1ccc(-c2cc(-c3nnc4n3CCCCC4)c3ccccc3n2)cc1", "Potency": "inconclusive [inhibitor, full curve]"}, {"compound": "CCn1ncc([N+](=O)[O-])c1C(=O)Nc1ccc(C(=O)N2CCCCC2)cc1", "Potency": "inconclusive [inhibitor, full curve]"}, {"compound": "Cc1c(/C=N/n2cnnc2)c2ccccc2n1CCOc1ccccc1", "Potency": "inconclusive [inhibitor, full curve, poor fit]"}, {"compound": "COC(=O)c1ccc(NC(=O)Nc2ccc(F)cc2F)cc1", "activity change, negative = inhibition": "inactive: 0.276%"}, {"compound": "CC#C[C@]1(O)CC[C@H]2[C@@H]3CCC4=CC(=O)CCC4=C3[C@@H](c3ccc(N(C)C)cc3)C[C@@]21C", "activity change, negative = inhibition": "inactive: -7.01%"}, {"compound": "CCCC(=O)Nc1nnc(SCc2cc(=O)n3cccc(C)c3n2)s1", "activity change, negative = inhibition": "inactive: 11.5%"}, {"compound": "O=C(NCC1COc2ccccc2O1)C1CCN(S(=O)(=O)c2cccc3nsnc23)CC1", "note": "(configuration not stated)", "Potency": "inconclusive [inhibitor, full curve]"}, {"compound": "COc1ccc(-c2nc(CN3CCC(C(=O)NCc4ccc(F)cc4)CC3)c(C)o2)cc1OC", "activity change, negative = inhibition": "inactive: -12.8%"}, {"compound": "COc1cc(C(=O)NCC(c2ccco2)N2CCc3ccccc32)cc(OC)c1OC", "note": "(configuration not stated)", "Potency": "inconclusive [inhibitor, partial curve]"}, {"compound": "O=C(NCCc1ccccc1)c1c[nH]c2c(F)cccc2c1=O", "Potency": "inconclusive [inhibitor, full curve, poor fit]"}, {"compound": "Cc1ccc(NC(=O)c2cc(S(=O)(=O)N3CCOCC3)cn2C)c(C)c1", "Potency": "inconclusive [inhibitor, partial curve, poor fit]"}, {"compound": "CCC/C=N/NC(=O)CNC(=O)c1ccccc1Cl", "activity change, negative = inhibition": "inactive: 4.36%"}, {"compound": "CC1(C)CC2CC(C)(CN2S(=O)(=O)c2ccc(C(=O)Nc3ccc(S(=O)(=O)N4CCOCC4)cc3)cc2)C1", "note": "(configuration not stated)", "Potency": "inconclusive [inhibitor, full curve, poor fit]"}, {"compound": "Cc1ccc2c(c1)sc(-c1ccc(N(C)C)cc1)[n+]2C", "activity change, negative = inhibition": "inactive: -3.53%"}, {"compound": "CCc1nnc(NC(=O)CSc2nnc(CNc3cccc(Cl)c3)n2CC)s1", "Potency": "inconclusive [inhibitor, full curve]"}, {"compound": "O=C(CSc1nnnn1-c1ccc2c(c1)OCCO2)N1CCc2ccccc21", "Potency": "inconclusive [inhibitor, partial curve]"}, {"compound": "CCC(C)C(NS(=O)(=O)c1ccc(C)cc1)C(=O)N1CCOCCOCCOCC1", "note": "(configuration not stated)", "Potency": "inconclusive [inhibitor, full curve, poor fit]"}, {"compound": "CC(Cc1ccccc1)NC(=O)Cc1ccc(N(C)C)cc1", "note": "(configuration not stated)", "Potency": "inconclusive [inhibitor, partial curve, poor fit]"}, {"compound": "CCC(=O)n1nc(-c2ccc(OC)cc2)nc1NCc1cccs1", "Potency": "inconclusive [inhibitor, single point]"}, {"compound": "Cc1ccccc1NC(=S)NCc1ccc2c(c1)cc(C)n2C", "Potency": "inconclusive [inhibitor, full curve, poor fit]"}, {"compound": "COc1cccc(C(=O)Nc2c3c(nn2-c2ccc(C)cc2C)CS(=O)(=O)C3)c1OC", "activity change, negative = inhibition": "inactive: 1.92%"}, {"compound": "COc1ccc(C(=O)Nc2nc3cc(OC)c(OC)cc3c(=O)[nH]2)cc1", "activity change, negative = inhibition": "inactive: 1.01%"}, {"compound": "CC(C)c1ccc(NC(=O)C(c2ccc3c(c2)OCO3)N2CCCCC2)cc1", "note": "(configuration not stated)", "Potency": "inconclusive [inhibitor, full curve]"}, {"compound": "CC[C@@H]1[C@H]2CCCC(=O)N3CC[C@@H](C[C@@H]1OC(=O)NCc1ccccc1)[C@@H]23", "Potency": "inconclusive [inhibitor, full curve, poor fit]"}, {"compound": "CC(Oc1cc2oc(=O)c3c(c2cc1Cl)CCCC3)C(=O)NCc1ccccn1", "note": "(configuration not stated)", "Potency": "inconclusive [inhibitor, single point]"}, {"compound": "Cc1ccc(Cl)c(OCC(=O)Nc2ccc3c(c2)OCCO3)c1", "activity change, negative = inhibition": "inactive: 0.924%"}, {"compound": "O=C1NC(Cc2ccccc2)c2nc3ccccc3c(=O)n2-c2cc(Cl)ccc21", "note": "(configuration not stated)", "activity change, negative = inhibition": "inactive: 8.16%"}, {"compound": "Cc1cc(C)c(S(=O)(=O)c2ccccc2C)c(Cl)n1", "Potency": "inconclusive [inhibitor, partial curve, poor fit]"}, {"compound": "Cc1ccc(CCN2CC(C(=O)NCCCN3CCC(C)CC3)CC2=O)cc1", "note": "(configuration not stated)", "activity change, negative = inhibition": "inactive: -5.85%"}, {"compound": "COc1ccc(/C=C/C=C2\\N=C(SC)SC2=O)cc1", "Potency": "inconclusive [inhibitor, full curve, poor fit]"}, {"compound": "COc1ccc(OS(=O)(=O)c2c(C)noc2C)cc1", "Potency": "inconclusive [inhibitor, full curve]"}, {"compound": "O=C(CO/N=C/c1cccc([N+](=O)[O-])c1)NC1CCCCCC1", "Potency": "inconclusive [inhibitor, partial curve, poor fit]"}, {"compound": "CC(C)=C1SC(N2CCN(Cc3ccccc3)CC2)=NC1=O", "Potency": "inconclusive [inhibitor, full curve, poor fit]"}, {"compound": "CCn1c(COc2ccccc2C)nnc1SCC(=O)O", "Potency": "inconclusive [inhibitor, full curve, poor fit]"}, {"compound": "CCN1CCOC(=O)C1CC(=O)Nc1cc(Cl)ccc1C", "note": "(configuration not stated)", "activity change, negative = inhibition": "inactive: -2.35%"}, {"compound": "c1ccc(-c2nnc(-c3ccccn3)nc2NC2CCCCC2)cc1", "activity change, negative = inhibition": "inactive: -5.61%"}, {"compound": "O=C(CN1CCN(S(=O)(=O)c2ccc(Br)cc2)CC1)N/N=C/c1cc([N+](=O)[O-])ccc1Cl", "Potency": "inconclusive [inhibitor, partial curve, poor fit]"}, {"compound": "CC(C)CCNC(=O)C1(c2cccs2)CCOCC1", "Potency": "inconclusive [inhibitor, full curve]"}, {"compound": "Cc1ccc(C(C(=O)NC(C)(C)C)N(Cc2cccs2)C(=O)c2ccc3c(c2)OCCO3)cc1", "note": "(configuration not stated)", "Potency": "inconclusive [inhibitor, single point]"}, {"compound": "CCOc1ccc(-c2c(=O)n(OCc3ccc([N+](=O)[O-])cc3)c3ccccc3[n+]2[O-])cc1", "Potency": "inconclusive [inhibitor, single point]"}, {"compound": "O=C(c1cccs1)N1CCN(Cc2cn[nH]c2-c2ccc(F)cc2F)CC1", "Potency": "inconclusive [inhibitor, full curve]"}, {"compound": "Cc1cc(/C=C(/C#N)c2nc3ccccc3[nH]2)c(C)n1-c1cc(C(=O)O)cc(C(=O)O)c1", "Potency": "inconclusive [inhibitor, partial curve, poor fit]"}]}]}
